Data: PubChem BioAssay AID493208 (National Center for Advancing Translational Sciences (NCATS), 2011)
Out of some 44,000 compounds screened, about 340 (0.77%) were called active. About 5% were inconclusive and are not listed. Calls come from the whole dose curve; as a rule, active = well fitted inhibition curve with a large enough effect; inconclusive = small, poorly fitted or top-dose-only effect; inactive = flat fitted curve, though single readings scatter. The list shows a part of the results.

assay: Acumen qHTS Assay for Inhibitors of the mTORC1 Signaling Pathway in MEF (Tsc2-/-, p53-/-) Cells: Sytravon; conditions: phospho-rpS6 immunofluorescence/PI, 24 h; series mostly up to 38.3 µM; activity change, negative = inhibition: at the top concentration; note: nearly all actives have a fitted effect of over 50% in size;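 for activity change, negative = inhibition: plate controls were DMSO for no effect and rapamycin for full effect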
Procedure, shortened: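 Readout is phospho-S6 Alexa 488 signal normalized to PI per well, reported as % active cells with thresholds set from rapamycin (7.5 nM) and DMSO controls. Cells: Tsc2-/-, p53-/- MEFs, 24 hrs compound at 37 C; PI cell number serves as viability.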
Potency is the fitted concentration of half-maximal effect.

Row | Structure (SMILES) | activity change, negative = inhibition | Potency
1 | CN(C)S(=O)(=O)N1CCC(n2cnc3cccnc32)CC1 | inactive: 0% | 
2 | COc1ccccc1Cn1c(CNS(=O)(=O)c2ccc(CC(C)C)cc2)nc2cccnc21 | inactive: 0.0124% | 
3 | Cc1ccc(CCNC(=O)c2cc3cc4cc(C)ccc4nc3s2)cc1 | inactive: -21.2% | 
4 | COc1ccc(NC(=O)N(C(C)C)C2CCN(C(C)=O)CC2)c(OC)c1 | inactive: 10.5% | 
5 | COc1cccc(N2C(=O)C(CC(=O)Nc3ccc(F)cc3)N(CCC3=CCCCC3)C2=O)c1 (stereo not given) | inactive: 3.6% | 
6 | CCc1ccc(NC(=O)CC2C(=O)N(c3ccc(C)cc3)C(=O)N2CCc2ccncc2)cc1 (stereo not given) | inactive: -0.195% | 
7 | COC(=O)Cc1c(C)c2cc3c(c(C)c2oc1=O)OCN(CCc1ccc(F)cc1)C3 | inactive: 1.92% | 
8 | COc1cccc(NC(=O)CN2C(=O)COc3ccc(S(=O)(=O)N4CCCCCC4)cc32)c1 | inactive: -0.525% | 
9 | O=C1C2=C(Nc3ccccc3SC2c2ccc(Cl)c(Cl)c2)c2ccccc21 (stereo not given) | inactive: -7.86% | 
10 | Cc1cccc(C)c1OCC(=O)N1CCC(c2nc3ccccc3o2)CC1 | inactive: -0.58% | 
11 | Nc1c(C(=O)NCc2ccc3c(c2)OCO3)nnn1CC(=O)Nc1ccc(Br)cc1 | inactive: -29% | 
12 | COc1ccc(NC(=O)CN(C)S(=O)(=O)c2ccc(C(=O)N3CCOCC3)s2)cc1 | inactive: 0% | 
13 | Cc1cc(SCC(=O)Nc2ccc(Cl)cc2)nc2ccccc12 | inactive: -14.7% | 
14 | Cc1ccc(Cn2cc(C(=O)c3ccc(C)cc3)c(=O)c3ccc(C)nc32)cc1 | inactive: -11.1% | 
15 | CCc1ccc(-c2cc(C)no2)cc1S(=O)(=O)Nc1ccc(Cl)cn1 | inactive: 7.21% | 
16 | Cc1cccc(NC(=O)CSc2cn(CC(=O)N3CCCC3)c3ccccc23)c1C | inactive: -17.7% | 
17 | CC(=O)N1CCCc2cc(S(=O)(=O)N3CCCC(C(=O)NCc4ccccc4)C3)ccc21 (stereo not given) | inactive: -10.5% | 
18 | COc1cc(OC)c(NC(=O)c2cc3c(s2)-c2ccc(Cl)cc2SC3)cc1Cl | inactive: -1.52% | 
19 | Cc1cccc(N2CCN(C(=O)C3CCN(Cc4nc(-c5ccc(Cl)cc5)oc4C)CC3)CC2)c1C | inactive: -0.379% | 
20 | CCc1nn2c(-c3ccco3)ccnc2c1-c1ccccc1 | inactive: -5.72% | 

Row | Structure (SMILES) | activity change, negative = inhibition | Potency
21 | CCOC(=O)c1cc(S(=O)(=O)Nc2ccc(OC(F)(F)F)cc2)[nH]n1 | inactive: -6.04% | 
22 | CCC1CN(C(=O)N2CCC(C(=O)NCc3cc(OC)ccc3OC)CC2)c2ccccc2O1 (stereo not given) | inactive: 3.29% | 
23 | Cn1c(C(=O)NCc2ccc(F)cc2)cc2cc(S(=O)(=O)N3CCCCC3)ccc21 | inactive: 0% | 
24 | COc1ccc(NC(=O)CSc2nc(-c3ccc(OC)cc3)cc(=O)[nH]2)cc1 | inactive: 8.75% | 
25 | CCN(C(=O)Cn1c(SCC(=O)NCc2ccccc2)nc2ccccc21)c1cccc(C)c1 | inactive: 0% | 
26 | COc1ccc(-c2cc3ccc(O)c(CN4CCN(CCO)CC4)c3oc2=O)cc1OC | inactive: 2% | 
27 | O=C(Nc1cccc(Cl)c1Cl)c1cc2nc(-c3ccc4c(c3)OCO4)cc(C(F)(F)F)n2n1 | inactive: -0.128% | 
28 | Cc1cccn2c(Nc3ccc4c(c3)OCCO4)c(-c3ccc(Br)o3)nc12 | inactive: -0.898% | 
29 | COc1ccc(OC)c(CNC(=O)c2cc(-c3ccc(Cl)s3)nc3ccccc23)c1 | inactive: -5.59% | 
30 | COc1cc(-c2nc3n(n2)C(c2ccc(F)cc2)C(C(N)=O)=C(C)N3)cc(OC)c1OC (stereo not given) | inactive: -7.18% | 
31 | Cc1ccc(-n2nc(C(=O)NCCc3cccc(C)c3)c3c4ccccc4n(C)c3c2=O)cc1 | inactive: -12.3% | 
32 | COc1ccccc1NC(=O)c1oc2ccccc2c1NC(=O)c1ccc(S(=O)(=O)N(C)C)cc1 | inactive: -1.61% | 
33 | Cc1ccc(CNC(=O)c2cc(C3CC3)nc3c2c(C)nn3-c2cccc(Cl)c2C)cc1 | inactive: -21.2% | 
34 | CCCN(CCC)C(=O)c1c[nH]c2ccc(S(=O)(=O)Nc3cc(C)cc(C)c3)cc2c1=O | inactive: -0.828% | 
35 | Cc1ccc(NC(=O)c2nc(S(=O)(=O)Cc3cccc(C)c3)ncc2Cl)cc1 |  | active: 5.85 µM
36 | COc1cc(C(=O)Nc2ccc(-c3cc(C(F)(F)F)nn3-c3ccccc3)cc2)cc(OC)c1OC | inactive: -28.8% | 
37 | COc1ccccc1CNc1nc(-c2ccco2)nn1S(=O)(=O)c1ccc(Cl)cc1 | inactive: -3.09% | 
38 | Cc1ccc(S(=O)(=O)Nc2cc(Cl)c3oc4c(c3c2)C(=O)CC(C)(C)C4)cc1 | inactive: -10.9% | 
39 | COCCNC(=O)C(=O)Nc1c2c(nn1-c1ccccc1)CS(=O)(=O)C2 | inactive: -0.307% | 
40 | Cc1ccccc1NC(=O)CSc1nc2ccc(NC(=O)COc3ccccc3F)cc2s1 | inactive: -25.7% | 

Row | Structure (SMILES) | activity change, negative = inhibition | Potency
41 | COc1cc(OC)c(NC(=O)Cn2c(=O)cc(C(F)(F)F)c3c(C)nn(C)c32)cc1Cl | inactive: -25.6% | 
42 | CCc1ccccc1NC(=O)c1cnn2c(C(F)(F)F)cc(-c3ccc(OC)c(OC)c3)nc12 | inactive: -12.9% | 
43 | CCOC(=O)c1cnn(-c2cccc(F)c2)c1C1CCNCC1 | inactive: -2.35% | 
44 | COc1ccccc1OCc1ccc(C(=O)Nc2ccc(C)c(C)c2)o1 | inactive: -5.12% | 
45 | Cc1cccc(NC(=O)Cn2nc(N3CCN(c4ccccc4)CC3)ccc2=O)c1C | inactive: -5.15% | 
46 | CCOC(=O)c1c(C)sc(-c2c(-c3cc(C)ccc3C)[nH]c3c2c(=O)[nH]c(=O)n3C)c1O | inactive: -4.92% | 
47 | O=C(NCc1ccc(F)cc1)C1CCN(C(=O)c2cnn(-c3ccccc3)c2-n2cccc2)CC1 | inactive: 0.456% | 
48 | O=C(Nc1ccccc1C(=O)O)c1cccc(S(=O)(=O)N2CCCC2)c1 | inactive: -5.86% | 
49 | CCCCN(CC)CCCNC(=O)c1cn(C)c2ccc(S(=O)(=O)N(C)C3CCCCC3)cc2c1=O | inactive: 8.41% | 
50 | CCOc1cc(C(=O)NCc2ccc3c(c2)CCN3C(=O)CC)cc(OCC)c1OCC | inactive: -12.5% | 
51 | COc1cccc(CNC(=O)CCC(=O)N2CC3CCCN3c3ccccc32)c1 (stereo not given) | inactive: 1.51% | 
52 | Cc1ccccc1NC(=O)CN(C)S(=O)(=O)c1cccc2nsnc12 | inactive: 1.36% | 
53 | CCC(Cn1nnc2ccccc2c1=O)NC(=O)Nc1cccc(Cl)c1 (stereo not given) | inactive: 4.64% | 
54 | Cc1ccc(C(=O)N2CCN(c3ccccc3F)CC2)cc1NC(=O)c1nsc2ccccc12 | inactive: 0.432% | 
55 | COc1ccc(-c2[nH]ncc2C(=O)NCc2ccc(F)cc2)cc1 | inactive: -0.13% | 
56 | CCc1cccc(NC(=O)Cn2c(=O)n(CC3CCC(C(=O)NCCc4ccccc4)CC3)c(=O)c3ccccc32)c1 (stereo not given) | inactive: 7.25% | 
57 | COc1ccccc1CCNC(=O)Cc1c(C)c2c(cc(C)c3c(C)coc32)oc1=O | inactive: -4.28% | 
58 | COc1ccc(N2C(=O)C(CC(=O)Nc3ccc(F)cc3)N(CCC3=CCCCC3)C2=O)cc1 (stereo not given) | inactive: -0.533% | 
59 | O=C(NC1CC(=O)N(c2cccc(F)c2)C1)C1CCCCC1 (stereo not given) | inactive: 1.03% | 
60 | CN(C(=O)Nc1cn(C)c(=O)c2ccccc12)c1ccccc1 | inactive: -23.5% | 
